The whole screen tested about 150,000 compounds, of which about 540 (0.36%) showed an effect of 50% or more. The list shows a part of the results.

The assay deals with Plasmodium falciparum. Nature of the assay: Primary screen in NF54 nanoGlo assay, in single point, at 2uM, 72h; a lower Z score goes with more inhibition. As to conditions: timepoint 72 hour. Type of assay: functional, Erythrocyte.
Consider `O=C(O)c1ccnc(C(=O)N2CCC[C@H]2c2cccs2)c1`, for which the “% Inhibition” value stood at 7% and the Z score is given as -0.69.
Taken in the same sequence, the figures for `O=C(CN1CCOCC1)N1CCN(Cc2cnns2)CC1` were -13% and 1.8.
In the case of `Cc1cc(C(=O)N[C@H]2C[C@H](O)C2)ns1`, the “% Inhibition” value is on record as -16% and the Z score stood at 2.18.
In the same order, the values of `Cc1nc(C)c(C(=O)NC[C@@]23CCCC=C2N(Cc2ccccc2)C(=O)CC3)s1` are -11% and 1.63.
With `C[C@@H](O)CNCC1=Cc2cc(Cl)cc(Cl)c2OC1`, the “% Inhibition” value is -15% and the Z score came to 2.2.
Taken in the same sequence, the figures for `O=C(NC[C@@]12CCC=C1N(CC1CC1)C(=O)CC2)c1ccccn1` were -12% and 1.71.
With `CCOC(=O)N1CCC(Nc2nc(N(C)C)nc(C)c2C)CC1`, the “% Inhibition” value is -9% and the Z score is listed as 1.69.
For the compound `C=CCNC(=O)NC(=O)[C@H](C)Nc1cnn(C(C)(C)C)c1`, the “% Inhibition” value is listed as -12% and the Z score is recorded as 2.1.
In the same order, the values of `O=C(c1ccc(Cl)cc1NS(=O)(=O)c1ccoc1)N1CCCCC1` are 5% and -0.68.
Taken in the same sequence, the figures for `CC(C)(C)c1ccncc1CNC(=O)c1ncoc1C1CC1` were -2% and 0.31.
In the same order, the values of `CN1C(=O)[C@@H]2CCCCN2c2ccc(C(=O)NCCN3CCN(c4ccccc4F)CC3)cc21` are 34% and -0.64.
For `CCc1ccc(C(=O)N2CCCN(c3nc(Cc4ccc(C)cc4)nc4c3c(C)nn4-c3ccc(F)cc3)CC2)cc1`, the “% Inhibition” value is listed as 1% and the Z score is on record as -0.16.
Taken in the same sequence, the figures for `CC[C@H](C)C(=O)Nc1ccc(N2CCNC(=O)C2)nc1` were -6% and 0.68.
In the same order, the values of `CCc1ccc(NCc2cnc([C@@H]3CCCO3)s2)cc1S(N)(=O)=O` are -10% and 1.59.
In the same order, the values of `CCc1cc(NC(=O)[C@@H]2CCN(c3cc(F)cc(F)c3)C2=O)n(C)n1` are -1% and 0.13.
As for `CN(C)CCCCOc1cccc(Cl)c1`, the “% Inhibition” value is -13% and the Z score is 1.77.
On to `O=C(O)CCC1CCCN(C(=O)C2CCN(c3cc(F)cc(F)c3)C2=O)C1` (centres undefined), for which the “% Inhibition” value is reported as -12% and the Z score was 1.69.
Taken in the same sequence, the figures for `COc1cc(F)c(F)cc1NC(=O)CO` were -1% and 0.11.
Taken in the same sequence, the figures for `CCC(C)C(Nc1ncccn1)C(N)=O` (centres undefined) were -8% and 0.99.
In the same order, the values of `Cc1cc(C)c2[nH]c(C(=O)N(C)C[C@H]3CCCCO3)c(C)c2c1` are -11% and 1.83.
As to `CC(C)(C)CC(=O)NCCc1cccs1`, the “% Inhibition” value is -3% and the Z score is reported as 0.42.
In the same order, the values of `COc1ccccc1-c1n[nH]cc1CN1C[C@@H]2CCN(S(C)(=O)=O)C[C@]2(CF)C1` are -9% and 1.78.
Taken in the same sequence, the figures for `Cc1c[nH]c(CN2CC(C)(C)[C@@](C)(O)C2)c(C)c1=O` were -17% and 2.89.
In the same order, the values of `CCN(C(=O)Cn1c(=O)n(Cc2ccccc2F)c(=O)c2sccc21)c1cccc(C)c1` are -5% and 0.64.
Regarding `Cc1cc(C)n(CCNS(=O)(=O)c2ccc(N3CCCCS3(=O)=O)cc2)n1`, the “% Inhibition” value is reported as -3% and the Z score was 0.4.
Taken in the same sequence, the figures for `CCc1cccc(NC(=O)N2CCN(CCOC)[C@@H]3CS(=O)(=O)C[C@@H]32)c1` were -14% and 1.41.
Taken in the same sequence, the figures for `CCn1cc(C(=O)N2CCC[C@@]3(CCC(=O)N(Cc4cccnc4)C3)C2)cn1` were -12% and 1.31.
In the same order, the values of `O=C(C[C@H]1Cn2ncc(-c3ccccc3)c2NC1=O)NCc1ccco1` are -13% and 1.18.
In the case of `Cn1ccnc1CN1CC[C@@]2(CCCN(Cc3ccccc3F)C2=O)C1`, the “% Inhibition” value came out at 6% and the Z score is -0.72.
`CCN(CC)C(=O)c1cc(N)c(OC)c(OC)c1`: the “% Inhibition” value is -8% and the Z score is reported as 1.27.
Taken in the same sequence, the figures for `CCCOCCN1C[C@@H]2CC[C@H]1CN(C(=O)c1ccccc1)C2` were 1% and -0.13.
Taken in the same sequence, the figures for `CCOc1ccccc1NC(=O)[C@H](C)N1CC(OCCCOc2ccccc2)C1` were 8% and -1.33.
Taken in the same sequence, the figures for `CC(C)c1nccc(C(=O)N2CCc3n[nH]cc3C2)n1` were 3% and -0.53.
For `O=C(CCn1cccn1)N1CCc2[nH]ncc2C1`, the “% Inhibition” value is listed as -5% and the Z score is listed as 0.94.
Taken in the same sequence, the figures for `C[C@@H](Cn1cc(Cl)cn1)/C(N)=N\O` were -44% and 5.14.
Taken in the same sequence, the figures for `Cc1nnc(CN(CC(=O)N2CCc3ccccc3C2)C(C)(C)C)o1` were 9% and -1.16.
For the compound `COc1nccnc1N1CCC2(CC1)CC(=O)N(Cc1ccc(F)c(F)c1)C2`, the “% Inhibition” value is reported as -18% and the Z score came to 3.62.
In the same order, the values of `O=C(NCCn1cnc2cc(C(=O)N3CCCC3)ccc21)Nc1ccc(Br)cc1` are -12% and 1.53.
Taken in the same sequence, the figures for `C=C(C)CNC(=O)N[C@@H](COC)c1ccc(F)c(F)c1` were 6% and -0.77.
On to `Cc1ncoc1C(=O)N1CC[C@@]2(CCCN(CC3CCCCC3)C2=O)C1`, for which the “% Inhibition” value is -4% and the Z score is 0.85.
In the same order, the values of `CCN(Cc1cc2cc(OC)ccc2nc1O)[C@H]1CCS(=O)(=O)C1` are -8% and 1.13.
Taken in the same sequence, the figures for `CC(NC(C)c1ccco1)c1cnn(C(C)C)c1` (centres undefined) were -3% and 0.32.

(Values after ChEMBL document CHEMBL4888484, “Replenishing the malaria drug discovery pipeline: Screening and hit evaluation of the MMV Hit Generation Library 1 (HGL1) against asexual blood stage Plasmodium falciparum ,using a nano luciferase reporter read-out” (2022).)
